These are yes or no findings as the source states them, for the method shown. Some results given as binding are weak or reduced against the parent protein; the word gives no strength.
Tests used:
[1] = molecular target: ApoE derived from human plasma lipoprotein (human) (UniProt P02649); assay: ELISA on coated human plasma
[2] = molecular target: ApoE derived from human plasma lipoprotein (human) (UniProt P02649); assay: ELISA on coated human plasma (pooled E4+ plasma, 1:100), anti-mouse IgG-HRP, OD450
[3] = molecular target: ApoE derived from human plasma lipoprotein (human) (UniProt P02649); assay: ELISA on coated human plasma (diluted 100x)
[4] = molecular target: human ApoE in brain tissue of 5XFAD APP transgenic mice expressing different human ApoE isoforms (human) (UniProt P02649); assay: staining of 5XFAD brain tissue, biotinylated antibody
[5] = molecular target: T1, recombinant alipidated human ApoE2 (human, UniProt P02649 19-317); assay: direct ELISA on coated recombinant alipidated ApoE (0.5 ug/ml); direct ELISA, plate coated with recombinant alipidated ApoE2 (0.5 µg/ml), anti-mouse IgG-HRP detection
T1 construct: mature; full length recombinant protein made in E. coli or bought

Protein sequences, listed by entry. Tags and fused reporters are not part of them. Lines headed by an entry give the natural chain unless they say otherwise; changes in a name come on top. Chains listed by the source or under a name are the forms on record and can include a tag or linker. Residues count along the entry.
human ApoE in brain tissue of 5XFAD APP transgenic mice expressing different human ApoE isoforms (P02649, residues 19-317): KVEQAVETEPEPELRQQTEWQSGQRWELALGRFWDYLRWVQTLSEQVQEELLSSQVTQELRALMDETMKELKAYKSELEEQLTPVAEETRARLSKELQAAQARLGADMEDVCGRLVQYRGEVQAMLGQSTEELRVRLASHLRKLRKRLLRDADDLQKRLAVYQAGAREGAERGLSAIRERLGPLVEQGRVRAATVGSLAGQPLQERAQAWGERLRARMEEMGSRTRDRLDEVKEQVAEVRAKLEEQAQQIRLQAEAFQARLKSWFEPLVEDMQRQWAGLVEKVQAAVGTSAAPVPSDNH
ApoE derived from human plasma lipoprotein (P02649, form named): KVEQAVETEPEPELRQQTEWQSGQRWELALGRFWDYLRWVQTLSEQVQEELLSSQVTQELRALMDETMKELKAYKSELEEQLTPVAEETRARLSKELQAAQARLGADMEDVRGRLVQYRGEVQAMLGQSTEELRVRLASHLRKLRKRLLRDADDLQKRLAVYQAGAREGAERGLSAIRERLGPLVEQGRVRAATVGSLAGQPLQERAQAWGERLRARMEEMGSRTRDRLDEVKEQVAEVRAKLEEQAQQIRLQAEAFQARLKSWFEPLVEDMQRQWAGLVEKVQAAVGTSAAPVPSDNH
recombinant alipidated human ApoE2 (P02649, form named): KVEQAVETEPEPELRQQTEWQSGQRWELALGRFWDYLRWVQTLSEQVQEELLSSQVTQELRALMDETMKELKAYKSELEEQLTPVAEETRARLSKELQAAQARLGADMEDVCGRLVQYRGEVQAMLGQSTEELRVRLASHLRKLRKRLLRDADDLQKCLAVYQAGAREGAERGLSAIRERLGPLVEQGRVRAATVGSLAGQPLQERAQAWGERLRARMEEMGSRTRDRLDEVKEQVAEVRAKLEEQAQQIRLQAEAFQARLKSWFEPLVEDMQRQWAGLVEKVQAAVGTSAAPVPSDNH

binding [1] | binding [2] | binding [3] | binding [4] | binding [5] | Binder
binds | binds | binds | binds | – | HJ154 (antibody, V domains shown, murine monoclonal antibody from hybridoma; also called HJ154B (biotinylated)) VH: QVQLQQPGTEFVMSGASVMLSCKASGYIFTNYWLHWVKQRPGHGLEWIGEIDPSDSYSICNDNFKGKSTLTVDKSSSTAYMQLSSLTSEDSAVYYCAGSLGRVGLAYWGQGTLVTVST VL: QIVLTQSPAIMSASPGEKVTMSCSASSSVSNMYWYQQKPGSSPKSWIYRTSNLASGVPARFSGSGSGTSYSLTISNMEAEDAATYYCQHYQNYPLTFGAGTKLELKR
– | – | – | binds | – | HJ153 (antibody, V domains shown, murine monoclonal antibody from hybridoma; also called HJ153B (biotinylated)) VH: QVQLQQPGAELVKPGASVKLSCKASGYTFTSYWMHWVKQRPGRGLEWIGEIDPSDGFTYNNQNFKDKSTLTVDRSSGTAYLQLSSLTSEDSAVYYCAGSLGRIGLAYWGHGTLVTVSA VL: QIVLTQSPAIMSASPGEKVTISCSASSSVTYMYWYQQKPGASPKSWIYRTSNLASGVPARFSGSGSGTSYSLTISSMEAEDAATYYCQQFQSYPLTFGAGTKLELKR
– | – | – | – | no binding (tested: >1000 nM) | HJ155 (antibody, V domains shown, murine monoclonal antibody from hybridoma; also called HJ155B (biotinylated)) VH: RVQLQQSGPGLVKPGASVKISCKASGYTFTDYYINWVRQRPGQGLEWIGWIFPGSGITYYNEKFKGKATLTVDRSSSTAYMLLSSLTSEDSAVYFCARYAYGSPFAYWGQGTLVTVSA VL: DVLMTQTPLSLPVSLGDQASISCRSSQSIVHSNGNTYLEWYLQKPGQSPKLLIYKVSNRFSGVPDRFSGSGSGTDFTLKISRVEAEDLGVYYCFQGSHVPYTFGGGTKLEIKR

Source: patent US20250145697A1 (WASHINGTON UNIVERSITY, published 2025)
